PubChem BioAssay AID1454 (National Center for Advancing Translational Sciences (NCATS), 2008)
In all, about 130,000 compounds went through this assay and about 550 (0.42%) were called active. This list was built around the results that the source calls inconclusive (neither active nor inactive); the mix of calls is not that of the screen. Calls follow the shape of the dose curve; as a rule, active = well fitted inhibition curve with a large enough effect; inconclusive = small, poorly fitted or top-dose-only effect, or effect the other way; inactive = flat fitted curve, though single readings scatter. Potencies of inconclusive entries are left out as doubtful fits.

assay: qHTS Assay for Inhibitors of the ERK Signaling Pathway using a Homogeneous Screening Assay; Stimulation with EGF; settings: HEK293-V1b, EGF-stimulated phospho-ERK AlphaScreen; activity change, negative = inhibition: at the top concentration; also: nearly all actives have a fitted effect of over 55% in size;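 as to activity change, negative = inhibition: plate controls were stimulated vehicle wells for no effect and unstimulated vehicle basal for full effect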
How it was run: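 Homogeneous cell-based phospho-ERK assay: HEK293/V1b cells in 1% FBS, compound 30 min then EGF 5 min, AlphaScreen luminescence. Activity normalized between DMSO and 25 nM EGF controls; AC50 from Hill modelling.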
Potency is read from the fitted curve at half-maximal effect; tags tell the direction and shape of the fitted curve.

| Compound | Potency | activity change, negative = inhibition |
| --- | --- | --- |
| COc1ccc(S(=O)(=O)N2CCOCC2)cc1N=Nc1sc(N)nc1-c1ccccc1 | inconclusive [inhibitor, single point] | – |
| CCOC(=O)CNc1nc(Cl)nc(N2CCCCC2)n1 | inconclusive [inhibitor, single point] | – |
| CCC(=O)NC(=S)Nc1cccc(NC(=O)c2ccco2)c1 | inconclusive [inhibitor, single point] | – |
| CC(=O)CCn1cnc([N+](=O)[O-])n1 | – | inactive: 6.76% |
| CN1CCN(/N=C/c2nc(-c3cccc([N+](=O)[O-])c3)n3ccccc23)CC1 | inconclusive [inhibitor, partial curve] | – |
| CC[n+]1c(C)sc2sc3ccccc3c21 | inconclusive [inhibitor, full curve] | – |
| O=C(NCC1(c2ccccc2)CCCC1)c1ccc(Br)cc1 | inconclusive [inhibitor, single point] | – |
| CCOc1ccc(CCNC(=O)CSc2nn(-c3ccc(C)c(Cl)c3)c(=S)s2)cc1OCC | – | inactive: -8.05% |
| Cc1[nH]n(-c2ccccc2)c(=O)c1/C=C1/C=c2ccccc2=N1 | inconclusive [inhibitor, partial curve, poor fit] | – |
| N=C(c1ccc([N+](=O)[O-])cc1)N1CCCCCC1 | – | inactive: -22.9% |
| CCN(CC)S(=O)(=O)c1ccc(/C=C/C(=O)Nc2cccc(F)c2)cc1 | inconclusive [inhibitor, single point] | – |
| Cc1csc2c(N3CCN(C(=O)Nc4ccc(OC(F)(F)F)cc4)CC3)ncnc12 | inconclusive [inhibitor, single point] | – |
| Fc1ccc(-c2csc(-c3ccc(C4SCCS4)cc3)n2)cc1F | – | inactive: -5.85% [at 57.5 µM] |
| Cc1nc(N=Nc2cc(S(=O)(=O)O)ccc2S(=O)(=O)O)c(COP(=O)(O)O)c(C=O)c1O | – | inactive: -12.7% |
| CC1(C)CC(=O)C(N=Nc2ccc(C(F)(F)F)cc2[N+](=O)[O-])=C(O)C1 | inconclusive [inhibitor, partial curve] | – |
| N#Cc1nccnc1S(=O)(=O)c1cccs1 | inconclusive [inhibitor, single point] | – |
| Cn1cccc1/C=N/N1CCN(Cc2ccccc2Cl)CC1 | inconclusive [inhibitor, single point] | – |
| O=C1C(c2c(O)[nH]c3ccccc23)=Nc2ccccc21 | inconclusive [inhibitor, partial curve] | – |
| CCCCC#Cc1cncc(C(=O)N/N=C/c2cccc(OC)c2)c1 | inconclusive [inhibitor, single point] | – |
| COC(=O)c1ccc(S(=O)(=O)N2CCC(O)CC2)n1C | inconclusive [activator, partial curve, poor fit] | – |
| CCCCn1nnc(NC(=O)c2ccc(-c3cccc([N+](=O)[O-])c3)o2)n1 | inconclusive [inhibitor, single point] | – |
| CCC(=O)[C@@]1(C)[C@H](C)C[C@@H]2[C@@H]3CCC4=CC(=O)C=C[C@@]4(C)[C@H]3[C@H](O)C[C@]21C | – | inactive: 4.48% [at 25.7 µM] |

| Compound | Potency | activity change, negative = inhibition |
| --- | --- | --- |
| Nc1nc(NCC2CCCO2)nc(Nc2ccccc2)c1[N+](=O)[O-] (stereo unspecified) | inconclusive [inhibitor, single point] | – |
| Cc1cc(C)nc(SCC(=O)Nc2ccnc3ccccc23)n1 | – | inactive: 5.89% |
| NNC(=O)c1sc2nc(N3CCOCC3)c3c(c2c1N)CCCC3 | inconclusive [inhibitor, partial curve] | – |
| CCN(CCNC(=O)c1ccc(CSc2nc3ccncc3[nH]2)cc1)c1ccccc1 | inconclusive [inhibitor, single point] | – |
| O=C(O)CSCC(=O)Nc1ccc(Cl)cc1C(F)(F)F | – | inactive: 3.36% |
| CS(=O)(=O)Nc1cccc(-c2nc(Nc3ccc(F)cc3)c3ccccc3n2)c1 | inconclusive [inhibitor, single point] | – |
| CC(=O)Cc1cc(O)c2ccccc2c1OC(=O)c1ccc(Br)cc1 | inconclusive [inhibitor, single point] | – |
| Cn1c(=O)c(NC2CCCCC2)c2c3c(cccc31)C(=O)c1ccccc1-2 | inconclusive [activator, single point] | – |
| CCN1CCN(Cc2ccc(NC(=O)c3ccc(C)c(NC(=O)c4nccnc4N)c3)cc2C(F)(F)F)CC1 | inconclusive [inhibitor, single point] | – |
| CN(C)/C=N/C(=S)Nc1ccccc1Cl | inconclusive [activator, partial curve, poor fit] | – |
| O=C1c2ccsc2SCCN1Cc1ccccc1 | inconclusive [inhibitor, single point] | – |
| COc1cccc(C(C(=O)NC2CCCCC2)N(CC2CCCO2)C(=O)CNC(=O)c2ccco2)c1 (stereo unspecified) | – | inactive: 5.18% |
| O=C(CN1c2ccccc2Sc2ccccc21)NNC(=S)Nc1ccc(Cl)cc1 | inconclusive [inhibitor, partial curve] | – |
| N#Cc1c(/N=C/c2cccnc2)sc2c1CCCC2 | inconclusive [inhibitor, partial curve] | – |
| O=C(NCc1cccnc1)C(=O)NCC1OCCN1S(=O)(=O)c1ccc(F)cc1 (stereo unspecified) | inconclusive [inhibitor, partial curve] | – |
| COC(=O)[C@@]1(Cc2ccc(OC)cc2)[C@H]2c3cc(C(=O)N4CCCC4)n(CCc4ccc(O)c(O)c4)c3C[C@H]2CN1C(=O)c1ccccc1 | – | inactive: 10.7% |
| O=C(c1ccncc1)N1CCC[C@@]2(CCN(Cc3ccncc3)C2)C1 | – | inactive: -7.28% |
| Cc1cccc(CSc2nnc3c(n2)[nH]c2ccccc23)c1 | inconclusive [inhibitor, single point] | – |
| COC(=O)[C@H](Cc1ccccc1)NC(=O)O[C@@H]1C(=O)c2cc(OC)ccc2O[C@H]1c1cccc(OC)c1 | – | inactive: 9.09% |
| Cc1nc(C)c(CC(=O)N2CCc3c([nH]c4ccccc34)C2c2ccccn2)s1 (stereo unspecified) | inconclusive [inhibitor, partial curve, poor fit] | – |
| O=C(O)CCSc1nc2ccccc2s1 | inconclusive [inhibitor, single point] | – |
| COc1cccc(/C=C2\SC(=S)N(N3C(=O)CCCC3=O)C2=O)c1 | inconclusive [inhibitor, partial curve] | – |

| Compound | Potency | activity change, negative = inhibition |
| --- | --- | --- |
| CC(C)(C)c1ccc(/C=C/C(=O)N2CCc3ccccc3C2)cc1 | inconclusive [inhibitor, single point] | – |
| Fc1ccccc1SCc1nnc(-c2ccccc2Br)o1 | – | inactive: -1.06% |
| COc1ccccc1CNN | – | inactive: -6.99% [at 57.5 µM] |
| COC(=O)N1CCC2(CCCN(c3ccc(-c4ccccc4)cc3)C2)CC1 | inconclusive [inhibitor, single point] | – |
| C[C@@H]1CC=C[C@H]2[C@H]1C(=O)N(Cc1ccccc1)[C@H]2c1ccc(-c2ccc(N(C)C)cc2)cc1F | inconclusive [inhibitor, single point] | – |
| CC1(c2ccc([N+](=O)[O-])cc2)CC(C)(C)N(C(=O)c2ccccc2)c2ccccc21 (stereo unspecified) | inconclusive [inhibitor, single point] | – |
| COC(=O)[C@@]1(Cc2ccc(OC)cc2)[C@@H]2[C@@H](CC(=O)[C@H]2CC(=O)C(=O)N2CCCC2)CN1C(=O)c1ccccc1 | – | inactive: 2.83% |
| O=c1[nH]c(CSc2nc3ccccc3s2)nc2ccccc12 | inconclusive [inhibitor, partial curve, poor fit] | – |
| O=C1[C@H]2C(c3ccccc3)=NN(c3ccccc3)[C@H]2C(=O)N1c1ccccc1 | inconclusive [activator, single point] | – |
| O=C(NNC(=O)c1cnccc1C(F)(F)F)c1ccc(Cl)cc1 | – | inactive: -8.71% [at 57.5 µM] |
| COc1ccc(OCc2n(CC(=O)OC3CC(C)CCC3C(C)C)c3ccccc3[n+]2C)cc1 (stereo unspecified) | inconclusive [inhibitor, single point] | – |
| C=CCOC(=O)C(C#N)c1nc2ccccc2nc1N1CCN(c2ccccc2OCC)CC1 (stereo unspecified) | inconclusive [inhibitor, single point] | – |
| Fc1ccc(N2CCN(Cc3nnc(-c4ccccc4)o3)CC2)cc1 | – | inactive: -0.456% |
| CCOC(=O)/C(=C\c1cccc(O)c1)c1nc2sc(C)c(C)c2c(=O)[nH]1 | inconclusive [inhibitor, single point] | – |
| Cc1ccc(C)c(OCC(O)CN2CCN(CCN3C(=O)c4cccc5cccc(c45)C3=O)CC2)c1 (stereo unspecified) | inconclusive [inhibitor, single point] | – |
| CCc1cc2c(=O)c(-c3ccc4c(c3)OCCO4)c(C)oc2cc1OS(C)(=O)=O | inconclusive [inhibitor, full curve, poor fit] | – |
| CCN(c1ccccc1)c1nc2nonc2nc1NCCO | inconclusive [inhibitor, single point] | – |
| CNC(=S)Nc1cc(C(=O)N2CCCC2)ccc1N1CCCC1 | inconclusive [activator, partial curve, poor fit] | – |
| COc1ccc(NC(=O)c2cc(S(=O)(=O)Nc3ccc(OC)cc3)cs2)cc1 | inconclusive [inhibitor, partial curve] | – |
| C/C(=N\NC(=O)c1ccccc1)c1nc2ccccc2n1C | – | inactive: 6.1% |
| COc1ccc(CCn2c(C3CCCCC3)nc3c(c(=O)c4ccccc4n3C)c2=O)cc1 | inconclusive [inhibitor, single point] | – |
| O=C(Nc1ccc[n+](CC(=O)c2cccc3ccccc23)c1)c1ccccc1 | inconclusive [inhibitor, single point] | – |
